Reference: the supplement of paper PMC11417369
± gives the standard deviation of the averaged measurements. The list shows a part of the results.

test system: PfAP2-G AP2 domain (GST-tagged); test: gcPBM binding intensity (ln(normalized median fluorescence intensity)); higher = stronger DNA binding
Summary of the method: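 After 1 h on an Agilent 4 × 180k array of primer-extended double-stranded 36-bp intergenic genomic probes and negative controls, bound GST-tagged P. falciparum DNA-binding domains were detected with Alexa488 anti-GST antibody and scanned at 488 nm. The domains had been expressed in E. coli, and binding took place in 1× PBS with 1% milk, 0.2 mg/ml BSA, 0.5% salmon testes DNA and 0.03% Triton X-100. Binding intensity is the highest Masliner-normalised natural-log median intensity across replicate spots of either probe orientation.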

| Sequence | gcPBM binding intensity (ln) |
| --- | --- |
| GAAATTTTTAAATACAGTACACACATGGGTTTAAAT [XGTACX_site6124] | 11.1 ± 0.62 |
| ATACTTCAATCTATTTGTACATATTTTTTAAAACCA [XGTACX_site2328] | 11.1 ± 0.61 |
| TAAGAAAAAAAATAATGTACATATGTATTTGAGAAA [XGTACX_site3569] | 11 ± 0.54 |
| TATATATATATATATTGTACTAATTGTGCAAATGAG [XGTACX_site682] | 11.2 ± 0.81 |
| GCGGGTTTATCTTTCGCACACCTTACATTTTAGAAT [CACACA_site2015] | 10.2 ± 0.11 |
| AGTTTTATGTAGTGTTGTACTTTATACAAATATATT [XGTACX_site614] | 11.4 ± 0.6 |
| ATATCACATTCCACGGTACACACTAAAAGAAAAATC [CACACA_site3611] | 11 ± 0.61 |
| TGTTTTTTATATTACTGTACATGTTTTGGAATAATA [XGTACX_site4716] | 11.2 ± 0.84 |
| ATAAATCAAAGGCACACACACAAAAAAAAAAAAAAA [CACACA_site160] | 10.1 ± 0.49 |
| TATTCCTTCTACAATTAAATAATTATAATAAATATA [GTGCAC_negctrl_site26] | 9.93 ± 0.36 |
| GTATCATTAAATTATTGTACATATATATATATATAT [XGTACX_site8809] | 11 ± 0.64 |
| ACATTTAAGTTTAGCTGTACATATTCATCATAATTA [XGTACX_site37] | 11 ± 0.59 |
| TATTTTTGTATATATTTATTCTTATTTTACAGGAAA [TGCATGCA_negctrl_site472] | 9.905 ± 0.049 |
| AACAAAAATAGAAACACACATACATTGGTTTTCTTT [CACACA_site2534] | 9.74 ± 0.19 |
| TATATTTACATTGTAACACACATGAAATATATATAT [CACACA_site61] | 9.93 ± 0.2 |
| TTTTTTATTGTGATACGTATATTATTTTTTGATAAA [CACACA_negctrl_site1] | 10.6 ± 0.32 |
| TGTTGTAAATATGTTTGTACATAAATATATTATTTA [XGTACX_site5442] | 11 ± 0.74 |
| GTTTTATTAAAAATGTGTACTTAATTATGAAAAAAA [XGTACX_site4689] | 11.5 ± 0.97 |
| GTGTATTTTCTGCGCACACACATGCAAAAAGAAATA [CACACA_site1148] | 10.9 ± 0.69 |
| TTAATTAATAGACACACACACATATAAATATAGATT [CACACA_site7143] | 10.05 ± 0.049 |
| AAAAAAAAATAATATTGTACACACATAAATTCTTTG [XGTACX_site4315] | 11.2 ± 0.6 |
| TTTGTTTTTCATAGTGCACACATAACCAAAAATAGT [CACACA_site9030] | 10.9 ± 0.63 |
| AAGAAAAAATATAATAATAATAAAATATATATAATA [TGCATGCA_negctrl_site475] | 9.26 ± 0.46 |

| Sequence | gcPBM binding intensity (ln) |
| --- | --- |
| TAATCTATTTATATGTGTACCTATTTAGAAATGACA [XGTACX_site5709] | 11.3 ± 0.95 |
| AAAGTAAATTTAAGCACACACAACGAACTTTTATAC [CACACA_site7008] | 10.3 ± 0.11 |
| TATTGTTTTGATTGATGTACATGTTTAAAATATATA [XGTACX_site8430] | 11.4 ± 0.88 |
| TTTTTTTTTTTTTTTGCATGTTGAAAATAAAATTAT [TGCATGCA_site86] | 9.81 ± 0.27 |
| AAATAGTTGTTAAAGGTGCACAATATGGATATAAGA | 10.5 ± 0.41 |
| TGAAAATATATAACGCGTACAAAAAGGAAATACAAT [XGTACX_site3534] | 11.6 ± 0.86 |
| AAAATTTCAATAAATACACACATATAAATATAGATT [CACACA_site6893] | 9.835 ± 0.078 |
| ATAAATATTTTGTAAGCATGCTTTTAAAAAAAGAAA [TGCATGCA_site572] | 9.68 ± 0.071 |
| ATGTACTATAGGCACACACACTCACATATATATATA [CACACA_site5745] | 11.2 ± 0.73 |
| ATTTATTTTAAATAAGTGCAAAATGGTTATAAATAA | 10.5 ± 0.33 |
| ATAACATTCAAAAAATGTACAAACATATGAATAAAT [XGTACX_site7013] | 10.8 ± 0.43 |
| ATATCATTTTATTTGTGTACTTAAAAAGTTGCAATG [XGTACX_site4099] | 11.6 ± 0.96 |
| AAAACTTTTTTAACAGAAAAATAGGGATACAATATA [CACACA_negctrl_site1708] | 10.24 ± 0.099 |
| GGAAAAAAATAAAATAAGTATTTTACATACATATTG [TGCATGCA_negctrl_site10] | 9.795 ± 0.007 |
| ATATATTTTTATATAGTGCAAGTAATAAAAAGGAAT | 10.4 ± 0.32 |
| TAAATACAAGAACTGACACACATACATACTACATTT [CACACA_site5561] | 10.2 ± 0.13 |
| GGAATAACCAGACACACACACACATATAAATATGTA [CACACA_site7632] | 10.1 ± 0.2 |
| AAAATAATAATAAATGCATGTGTTGTTTACTAAGAA [TGCATGCA_site528] | 9.96 ± 0.028 |
| TTTTTAAAAAGTAACACACACTCTTATATATAATGA [CACACA_site3618] | 10.1 ± 0.33 |
| AAAAAAAACAGACACACACACATAAATATAAATAAA [CACACA_site6214] | 9.955 ± 0.092 |
| TATACATATATATATATATATAGATATATTCACGTG [XGTACX_negctrl_site265] | 9.895 ± 0.021 |
| AATGTAGACACATATGTACACACATATATATGTATA [CACACA_site9014] | 11.3 ± 0.87 |
